# Data: article PMC10726135
# The list shows a part of the results. At the low end of the ranking the order means little. Measured with an extract: partners may take part in the binding.
# Target: T1, HNF4alpha2 (COS-7 nuclear extract) (UniProt P41235)
# T1 sequence: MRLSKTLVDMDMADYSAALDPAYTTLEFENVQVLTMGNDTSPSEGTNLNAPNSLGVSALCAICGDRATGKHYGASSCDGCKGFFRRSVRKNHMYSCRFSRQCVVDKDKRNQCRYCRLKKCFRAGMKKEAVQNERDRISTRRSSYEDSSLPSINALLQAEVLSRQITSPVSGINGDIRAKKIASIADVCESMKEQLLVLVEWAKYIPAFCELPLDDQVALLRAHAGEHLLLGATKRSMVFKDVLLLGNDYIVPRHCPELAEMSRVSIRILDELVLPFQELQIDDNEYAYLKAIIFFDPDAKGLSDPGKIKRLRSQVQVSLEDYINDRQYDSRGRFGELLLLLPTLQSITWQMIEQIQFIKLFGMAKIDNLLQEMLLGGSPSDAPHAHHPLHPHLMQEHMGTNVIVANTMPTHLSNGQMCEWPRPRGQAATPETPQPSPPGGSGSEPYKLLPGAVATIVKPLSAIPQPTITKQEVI
# Assay: protein-binding microarray
# Conditions: COS-7 nuclear extract on double-stranded Agilent 4x180k PBM; binding buffer, salt, pH and temperature not given; high values mean tight binding; double strand, one strand shown; sequences stand for … in …GCCTAGGGAGATTAGAGTATCGGTCGA
row,Sequence,binding signal (log2 normalized intensity)
1,TAAAGTGGATTGCTGGCCTTTTATCTTTTA,1.08
2,CTGTTTGTATAACCCTGGCTGGAGTTGCTG,-1.08
3,TGGAACACAGAGGGAAATGCAAACATTTCT,-1.01
4,GGGTATGAATTTAACCTTTGCTCTCTGAAA,5.68
5,AGGTACTAAGAGATTTGAATATGTACATGG,1.38
6,ATGTCTTCTTTTATCACTTTGTAATGTCCC,2.22
7,CCTTAGATCCACGGAGAATGTAGACCTTTA,1.88
8,CCCACTTCAGGCAGGAATGCTGAACAATTG,0.142
9,GGCTCCAGAGTTTAATACCTCTGATCACTA,-1.11
10,TATAGGGCATACCCTTCCTGCTGACAAACT,-1.14
11,CCAGGAGCAGGATAGAAGGAAACAGTTCAG,-1.09
12,CAAGCAATCTGGCTGCAGAGTCCAAGATGC,0.917
13,TTTGCTTATCTGATAAGTCCATACCTAGTC,0.542
14,GTCTAGCGCAAATGATCAAAGGTTGGTTTT,3.97
15,AACAAGTTCTGCAGACTCCCTAGAAGAGTG,-1.1
16,CCAGAAGGAATGAGACATGAATCCATCCCA,-1.25
17,TTCTATGTTCACATCTCCTCTGGAGGCCAA,0.985
18,TAACCCTACAGTCCTGCCACATCCCCCACA,4.26
19,TCAGGTCAGTAGCCCAGGGTCACACAGATG,1.72
20,TTCCATTGTACTCAGTATGTGCTGACTGAC,0.765
21,CCGGGGAAAGGGAAAAAGGGAGATAGGTTA,-1.11
22,GAGAAACTTCTTTGTGATGTGTGGATTCAG,1.38
23,GATGGATATATGTACAGCTGTGTATGTGGC,1.48

row,Sequence,binding signal (log2 normalized intensity)
1,CCCCCTTCATCTGGGACGTGGCTCAAGATT,1.67
2,TTTTTCCTGGATGCCAGGCAAGAGCTCAGA,-0.982
3,CAACCTCTCCAATGCTATGCTTTTATTTAA,0.371
4,CATCCTGGCGACAGCAACTAGCAACTTGGA,-1.02
5,CTTATAGCTCAACCCCCAAAACTGCCTGAT,3.05
6,TTGGAATGCCCTTATCTCATACCTTGCATG,0.672
7,CAACAAAGCATTATCTACACAGTAAGGTGC,-1.19
8,ATCTCCACAAACATACAACCATCAAAGGTC,2.59
9,TCTTTCAGAAACAAAGGGGGAGGGAGATAG,-1.16
10,CCGCCCGACTACAACAGCCTTGCAGATAAG,-1.22
11,GTTATCTAAATTAGATATGGCTTATACTTG,-1.05
12,AAGATAAGCAGCATTCCACCAAATCTTACC,-1.2
13,GATGTGTGTATCAATGGCCCCAGTGCACGT,2.11
14,CCTTGCTCAACTCCCTCTGAAGGGAGGGCC,-1.06
15,GTGGTTGCTCGGAACACGAGGTGAGAGGCG,0.0472
16,ACGAGCAAGTTTATTCCAAGACTCGCGATA,-1.06
17,TTTCCTGTGACTTTTGGCCAGAGTAAGGCG,1.74
18,GGCAGGGAAAGGGGGTTTGCAACCTTTGAT,2.94
19,CAAAAGTTCAAAGATATGATGGCCAGTTCA,1.19
20,ACAGAGGTCAAAGAGCAATCATCAAGGTGG,3.36
21,GGGAAAGGGATAAGATTAGGTGCTGAGCAA,-1.03
22,AGCAGCTGTTTGACCAAAGCTACTCATCAT,-1.04
23,CAAACAGGTCAAGCAATGCTGGGGACCTTT,2.99
